PubChem BioAssay AID1159614 (National Center for Advancing Translational Sciences (NCATS), 2016)
Hit rate of the full screen: of about 45,000 compounds, about 65 (0.1%) were called active. The call rests on the fitted dose curve; in most records, active means well fitted activation curve with a large enough effect; inconclusive means small, poorly fitted or top-dose-only effect; inactive means no such curve, though single readings can be large or run the other way. This is one part of the list.

target: Galactocerebrosidase (Homo sapiens) (UniProt P54803); assay: A Novel Cell-Based Assay to Identify Small Molecules for B -Galactocerebrosidase; settings: 145M-Twi-hGALC-G270D cells (Twitcher mouse brain line with human GALC G270D), HMU-beta-Gal fluorescence, 48 h; series mostly up to 57.5 µM; activation: at the top concentration; further: 0% is about no effect; nearly all actives have a fitted effect of over 65% in size
How it was run: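 Brain-derived Twitcher mouse 145M-Twi cells stably expressing human GALC-G270D or wild-type GALC, treated live, then residual GALC activity read by fluorescence of HMU-b-Gal substrate (0.1 mM final) in citrate-phosphate buffer pH 5.2 with sodium taurocholate. Signal increase indicates enhancement.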

Sequence of UniProt P54803 (P54803 whole entry, looked up): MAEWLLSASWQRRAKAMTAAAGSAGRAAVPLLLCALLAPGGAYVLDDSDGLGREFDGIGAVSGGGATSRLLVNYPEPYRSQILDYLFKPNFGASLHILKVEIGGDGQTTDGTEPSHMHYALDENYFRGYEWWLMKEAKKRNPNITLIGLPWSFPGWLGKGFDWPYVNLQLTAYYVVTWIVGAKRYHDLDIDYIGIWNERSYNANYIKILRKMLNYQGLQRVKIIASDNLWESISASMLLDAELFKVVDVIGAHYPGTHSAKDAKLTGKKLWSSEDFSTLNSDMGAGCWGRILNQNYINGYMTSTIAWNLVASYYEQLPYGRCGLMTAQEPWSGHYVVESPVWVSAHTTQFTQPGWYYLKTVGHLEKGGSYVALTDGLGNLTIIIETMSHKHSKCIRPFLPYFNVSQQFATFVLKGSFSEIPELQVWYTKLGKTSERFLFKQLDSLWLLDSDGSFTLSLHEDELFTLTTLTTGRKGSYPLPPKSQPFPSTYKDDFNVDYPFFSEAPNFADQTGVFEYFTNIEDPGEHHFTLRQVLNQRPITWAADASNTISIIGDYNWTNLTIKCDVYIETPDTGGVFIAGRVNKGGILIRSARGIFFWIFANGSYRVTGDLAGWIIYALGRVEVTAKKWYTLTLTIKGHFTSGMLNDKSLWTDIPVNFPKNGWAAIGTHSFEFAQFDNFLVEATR

| SMILES | activation |
| --- | --- |
| CCOc1ccc(CCNC(=O)c2nn(-c3ccc(OC)cc3)c(=O)c3c2c2ccccc2n3C)cc1OCC | inactive: -3.76% |
| CCN(CC)C(=O)c1ccccc1NC(=O)c1cccc(S(=O)(=O)N2CCC(C)CC2)c1 | inactive: -1.38% |
| O=C(NC1CCCCC1)/C(=C/c1ccc(Cl)cc1)NC(=O)c1ccccc1 | inactive: -4.55% |
| Cc1ccc(CNC(=O)C2CCN(c3ncnc4c3nc3n4CCCCC3)CC2)cc1 | inactive: -7.91% |
| Cc1ccc(NC(CNS(=O)(=O)c2ccc(Cl)cc2)c2ccccc2)cc1 (stereo not drawn) | inactive: -8.91% |
| CCC(=O)N1c2ccc(S(=O)(=O)N3CCN(c4ccccc4Cl)CC3)cc2CC1C (stereo not drawn) | inactive: -1.28% |
| CCOC(=O)C1CCCN(S(=O)(=O)c2cc(-c3cc(C)no3)ccc2C)C1 (stereo not drawn) | inactive: -5.47% |
| COc1cccc(CNC(=O)c2ccc(CS(=O)Cc3ccc(Cl)cc3)o2)c1 (stereo not drawn) | inactive: 5.36% |
| Cc1ccc(C(=O)CSc2nnc3ccc4ccccc4n23)cc1 | inactive: -7.46% |
| N#Cc1cc2c(=O)n3ccccc3nc2n(-c2nnc(SCc3ccccc3)s2)c1=O | inactive: -10.1% |
| O=C(CCCn1c(=O)c2cccn2c2cccnc21)Nc1ccccc1Br | inactive: -7.33% |
| O=c1oc2ccc3ccccc3c2cc1-c1nnc(Nc2cccc(F)c2)s1 | inactive: -8.59% |
| Cc1ccccc1CNC(=O)c1ccc2c(c1)N(Cc1ccccc1)CCS2 | inactive: -13.8% |
| Cc1cccc(C)c1Nc1c(-c2ccccc2O)nc2ncccn12 | inactive: -3.59% |
| CCCCCCCCCCCCCCCCCC(=O)O | inactive: -7.18% |
| CCOC(=O)c1c(NC(=O)/C=C/c2ccc(OCC)cc2)sc2c1CCC2 | inactive: -12.7% |
| CCCCn1c(=O)c2oc3ccccc3c2n(CC(=O)Nc2ccccc2OC)c1=O | inactive: -0.878% |
| Cc1ccc(CNC(=O)Cn2cc(C(=O)c3ccc(Cl)cc3)c(=O)c3ccc(C)nc32)cc1 | inactive: -17.7% |
| CCN1CCOC(=O)C1CC(=O)Nc1cc(Cl)ccc1OC (stereo not drawn) | inactive: -6.49% |
| O=C(CCn1c(=O)c2cccn2c2cccnc21)N1CCN(c2ccc(Cl)cc2)CC1 | inactive: -12% |
| Cc1cccc(OCCCCn2c(C3CC(=O)N(c4ccc(C)cc4C)C3)nc3ccccc32)c1 (stereo not drawn) | inactive: -1.4% |

| SMILES | activation |
| --- | --- |
| Cc1ccc(Cl)cc1-n1ncc2c(N3CCC(C(N)=O)CC3)ncnc21 | inactive: -0.722% |
| CNc1oc(/C=C/c2cc(OC)c(OC)c(OC)c2)nc1C#N | inactive: -7.79% |
| CCCCNC(=O)[C@@H](c1ccccc1)N1Cc2ccccc2C1=O | inactive: -8.6% |
| CCc1ccc(C2=C(C)C(N3CCC(C(=O)NCc4ccc(C)o4)CC3)=NS2(=O)=O)cc1 | inactive: -2.99% |
| Cc1nn(CC(=O)NCc2ccccc2Br)c(=O)c2cc3occc3n12 | inactive: 2.12% |
| Cc1ccc(S(=O)(=O)N2CCCc3cc(NC(=O)c4c(F)cccc4F)ccc32)cc1 | inactive: -10.8% |
| Cc1ccc(-n2c(=O)c3ccc(C(=O)NCc4ccccc4Cl)cc3n(CC(N)=O)c2=O)cc1 | inactive: -26.8% |
| Cc1ccccc1C(=O)Nc1ccc(C(=O)OCc2cc(=O)n3c4c(sc3n2)CCCC4)cc1 | inactive: -14.1% |
| Cc1cccc(CNC(=O)c2cnc3sc(N4CCOCC4)nn3c2=O)c1 | inactive: -6.33% |
| Cc1ccc(C(=O)Nc2ccc(F)cc2)cc1S(=O)(=O)N1CCOCC1 | inactive: -13.2% |
| O=C(OCC1CCCO1)c1ccc2c(c1)N(Cc1ccccc1F)C(=O)c1ccccc1S2(=O)=O (stereo not drawn) | inactive: 8.29% |
| CCOc1ccccc1NC(=O)CSc1nccn1Cc1ccc(F)cc1 | inactive: -10.7% |
| CCNC(=O)CC1C(=O)N(c2ccc(F)cc2)C(=O)N1Cc1ccc(C)cc1 (stereo not drawn) | inactive: -13.2% |
| Cc1ccc(Cl)cc1N(C)C(=O)c1cc2ccc3cccnc3c2[nH]1 | inactive: -9.59% |
| CC(=O)OC/C=C(C)/C=C/C=C(C)/C=C/C1=C(C)CCCC1(C)C | inactive: -7.32% |
| CCCCOc1ccc(C(=O)NCCc2csc3nc(-c4ccccc4F)nn23)cc1 | inactive: -10.4% |
| COc1ccccc1CNC(=O)C(Cc1ccccc1)NS(=O)(=O)c1ccc2c(c1)CCN2C(C)=O (stereo not drawn) | inactive: -8.77% |
| Cc1ccccc1NC(=O)c1ccc(CNS(=O)(=O)c2ccc3c(c2)C(C)(C)C(=O)N3C)cc1 | inactive: 2.72% |
| O=C(NCc1ccccn1)c1nn(-c2ccccc2Cl)nc1CO | inactive: -10.7% |
| Cc1cc(NC(=O)CSc2ncc(C(=O)Nc3ccccc3)c(=O)n2C)no1 | inactive: -5.41% |
| CCN(CC)C(=O)C1=C(C)Nc2nc3ccccc3n2C1c1ccc(Cl)cc1 (stereo not drawn) | inactive: -11.7% |

| SMILES | activation |
| --- | --- |
| CSc1ncc(C(=O)Nc2cccc(Cl)c2C)c(-c2ccccc2)n1 | inactive: -7.13% |
| CSc1ccc(CCNC(=O)c2ccc3c(c2)c(C)c(C)n3Cc2ccc(F)cc2)cc1 | inactive: -9.54% |
| CCn1c(CN2CCN(C)CC2)nc2cc(NC(=O)c3cc(OC)c(OC)c(OC)c3)ccc21 | inactive: -14.9% |
| CCOc1ccccc1C(=O)NCC(c1ccc(N(C)C)cc1)N1CCCC1 (stereo not drawn) | inactive: -12.9% |
| COc1ccc(CCNC(=O)c2cc3c(=O)[nH]c4ccc(C)cc4c3s2)cc1OC | inactive: -18.8% |
| CCN(CC)C(=O)C1CCCN(c2ncnc3c2nc2n3CCCCC2)C1 (stereo not drawn) | inactive: -22% |
| CC(=O)c1cccc(NC(=O)c2cc(-c3ccc4c(c3)OCCO4)on2)c1 | inactive: -0.748% |
| CCOC(=O)CNC(=O)Cn1nc(N2CCN(c3ccccc3)CC2)ccc1=O | inactive: -2.22% |
| COCCn1c(CNC(=O)c2cc(OC)c(OC)c(OC)c2)nc2cccnc21 | inactive: 8.61% |
| COC(=O)c1ccc(NC(=O)c2c(NCc3ccc(OC)c(OC)c3)sc3c2CCCC3)cc1 | inactive: -12.5% |
| COC(=O)c1ccccc1NC(=O)CCCS(=O)(=O)c1nc(-c2ccccc2OC)cc(C(F)(F)F)n1 | inactive: -10.8% |
| CCOc1ccccc1CNC(=O)CN1C(=O)C2CCCCN2c2ccc(C(=O)N(C)C)cc21 (stereo not drawn) | inactive: -22.8% |
| CCc1ccccc1NC(=O)c1ccc2[nH]c(C)c(C)c2c1 | inactive: -3.64% |
| Cc1oc2ncnc(N3CCCCC3)c2c1C(=O)Nc1cccc(F)c1 | inactive: 9.59% |
| COc1ccc(-c2cc(-c3ccc(F)cc3)nc3c2COc2ccccc2-3)cc1 | inactive: -7.39% |
| CCc1ccc(CNC(=O)c2sc3ncnc(N(C)C4CCCCC4)c3c2C)cc1 | inactive: -1.39% |
| COc1ccc(CCCc2nnc(SCC(=O)Nc3ccc(Cl)cc3)o2)cc1 | inactive: -16.3% |
| CCOc1ccc(OCC)c(NC(=O)c2c(C)nn(-c3ccccc3)c2-n2cccc2)c1 | inactive: -3.22% |
| Cc1nn(C)c2c1c(C(F)(F)F)cc(=O)n2CC(=O)NC(C)(C)C | inactive: -11.1% |
| Cc1ccccc1CN1C(=O)C(O)(CC(=O)c2cccc(Br)c2)c2ccccc21 (stereo not drawn) | inactive: -20.3% |
| COc1ccc(Nc2cc(C(=O)NCCCN(C)C3CCCCC3)c3ccccc3n2)cc1 | inactive: -15.4% |
